The full ranking holds about 110,000 compounds; the median of “z-score” is about -0.1, and the highest 2% start at about 2. The list shows a part of the results. Active and inactive are the calls of the source.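 The calls were made as follows: active = z-score in the third read window above 3 or below -3; inactive = the rest.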

This experiment addresses Metabotropic glutamate receptor 8 (Rattus norvegicus) (UniProt P70579). The experiment can be described thus: rat mGluR8 modulators via GIRK flux, primary screen, cell-based, thallium flux, HTS (AID 488969). To be noted: HEK293 rat mGluR8, GIRK (G protein-gated inwardly rectifying potassium channel) thallium flux, FluoZin2; at 10 µM; stronger effect = higher value; submaximal glutamate (EC20) added with thallium.
Chain of UniProt P70579 (P70579 whole entry, looked up): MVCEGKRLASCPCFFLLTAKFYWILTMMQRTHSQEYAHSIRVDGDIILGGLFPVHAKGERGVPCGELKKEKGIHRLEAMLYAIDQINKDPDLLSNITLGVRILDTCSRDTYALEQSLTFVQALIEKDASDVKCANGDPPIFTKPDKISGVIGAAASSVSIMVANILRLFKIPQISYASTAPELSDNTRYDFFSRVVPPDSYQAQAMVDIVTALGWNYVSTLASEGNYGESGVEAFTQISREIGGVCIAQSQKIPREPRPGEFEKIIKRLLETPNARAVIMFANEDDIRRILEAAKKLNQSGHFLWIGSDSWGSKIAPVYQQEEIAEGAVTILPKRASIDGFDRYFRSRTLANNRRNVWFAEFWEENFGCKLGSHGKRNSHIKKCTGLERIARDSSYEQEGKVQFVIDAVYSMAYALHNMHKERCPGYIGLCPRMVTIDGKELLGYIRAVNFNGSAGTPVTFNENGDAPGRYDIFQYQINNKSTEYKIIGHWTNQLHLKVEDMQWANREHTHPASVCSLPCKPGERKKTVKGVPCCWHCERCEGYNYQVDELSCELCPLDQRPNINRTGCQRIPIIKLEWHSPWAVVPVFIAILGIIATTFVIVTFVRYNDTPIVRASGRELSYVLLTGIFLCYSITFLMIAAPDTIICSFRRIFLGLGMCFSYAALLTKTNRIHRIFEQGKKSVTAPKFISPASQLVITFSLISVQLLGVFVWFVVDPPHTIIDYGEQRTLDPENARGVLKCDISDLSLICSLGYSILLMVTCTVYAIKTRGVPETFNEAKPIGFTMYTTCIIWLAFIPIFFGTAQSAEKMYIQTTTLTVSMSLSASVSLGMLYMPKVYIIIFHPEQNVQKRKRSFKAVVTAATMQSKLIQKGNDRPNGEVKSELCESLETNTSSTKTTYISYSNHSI
With `COC(=O)CSc1nc2ccc(NC(=O)c3ccccc3C(=O)N3CCOCC3)cc2s1`, the z-score is -0.331.
In the case of `CC(C/C=N/NC(=O)COc1cc(Cl)ccc1Cl)c1ccccc1` (configuration not stated), the z-score is -0.0205.
Turning to `Cc1ccc(Cl)cc1NC(=S)NCc1cccn1C`, the z-score is active: 6.81.
To `Cc1cccc(NC(=O)c2cc3c(n(-c4ccccc4)c2=O)CCCC3=O)n1` belongs -0.15.
In turn, `O=c1c2c(n3nnnc3n1Cc1ccccc1)-c1ccccc1CC21CCCC1` gave a z-score of 0.0259.
To `COc1ccc(CNC(=O)COC(=O)c2c(-c3c(F)cccc3Cl)noc2C)cc1OC` belongs -0.0955; to `CCNC(=S)Nc1cc(OCC)c(NC(=O)c2cccs2)cc1OCC`, -0.0899.
To `CCn1nnc(NC(=O)COc2ccc(C3CCCCC3)cc2)n1` belongs 2.13; to `Cc1nnc(SCCC(C)C)[nH]c1=O`, -0.307; to `COc1cc(/C=N/NC(=O)CNC(=O)c2ccc3c(c2)OCCO3)ccc1O`, -0.118.
To `CC(=O)OCCNC(=O)c1cccnc1` belongs -0.0149; to `CC(=O)c1c(C)[nH]c(C(=O)N2CCCCCC2)c1C`, 1.14; to `C=CCNC(=O)c1ccccc1NC(=O)c1ccccc1`, 0.00566.
For `N#CCCN(Cc1cccnc1)C(=O)Nc1ccccc1`, the z-score is -0.271.
In turn, `COc1ccc(C(O)c2nccn2Cc2ccccc2)cc1OC` (configuration not stated) had a z-score of -0.853.
To `O=C(Nc1ccccc1-c1nnn(CC(=O)N2CCCc3ccccc32)n1)c1ccco1` belongs -1.68; to `CCn1nc(C(=O)OCC(=O)c2cc(C)n(Cc3cccs3)c2C)c2ccccc2c1=O`, -0.613.
To `O=C(c1ccco1)n1nc(-c2ccco2)nc1SCc1ccccc1` belongs 1.94; to `CC(C)C1CC(CCNCc2ccc(N(C)C)cc2)(c2ccccc2)CCO1` (configuration not stated), 0.098.
To `Cc1noc(C)c1S(=O)(=O)NC1CCCc2ccccc21` (configuration not stated) belongs -0.523.
Take `CCN(/N=C/c1cccs1)c1cc(=O)n(C)c(=O)[nH]1`: the z-score was -0.0804.
The value for `CN1CCN(C(=O)C2CC(c3ccc(F)cc3)=NO2)CC1` (configuration not stated) was -0.666; that for `COc1cc(-n2nc(C)c3c2OC(N)=C(C#N)C3c2ccccc2)c(Cl)c(Br)c1O` (configuration not stated) was -2.33.
The molecule `CCCCn1c(N)c(NCC(C)C)c(=O)[nH]c1=O` registered a z-score of -0.134.
Turning to `COc1ccc(C/C(N)=N/OC(=O)c2cccc([N+](=O)[O-])c2)cc1`, the z-score was -0.159.
In the case of `COC(=O)c1sccc1NC(=O)c1c(C)noc1C`, the z-score is -0.227.
The value for `O=[N+]([O-])c1ccc(-c2nc(-c3cccs3)c(-c3cccs3)[nH]2)cc1` was -0.0835; that for `O=C(NCc1cccnc1)c1cn(CCc2ccccc2)nn1` was -0.908.
The value for `O=C(Cn1cnc2c(nnn2Cc2ccc(F)cc2)c1=O)N1CCN(c2ccccc2)CC1` was -0.0198.
To `CCOC(=O)c1sc2nc(CC(=O)OC)nc(N3CCN(c4ccc(OC)cc4)CC3)c2c1C` belongs -0.181; to `COc1ccc(-c2nc(CS(=O)CC(=O)NCc3ccc4c(c3)OCO4)c(C)o2)cc1` (configuration not stated), -0.429.
Regarding `Cc1ccc(NC(=O)NC(=O)CSc2nnnn2C)c(C)c1`, the z-score is -0.438.
In turn, `Cc1cc(C)c2nc(N3CCCC(C(=O)N4CCN(c5ncccn5)CC4)C3)sc2c1` (configuration not stated) came in with a z-score of 0.0411.
To `O=S(=O)(c1ccc2oc3ccccc3c2c1)N1CCOCC1` belongs -0.195; to `Cc1cccc(N2CCN(C(=O)C(NS(=O)(=O)c3cccs3)c3ccccc3)CC2)c1C` (configuration not stated), 0.407.
To `CCOC(=O)c1c(P(=O)(N2CCOCC2)N2CCOCC2)noc1N` belongs -0.0555; to `O=C(CCCSc1nnnn1-c1cccc2ccccc12)c1ccc(F)cc1`, -0.0209; to `CCOc1ccc(N(CC(=O)Nc2ccccc2C(=O)N2CCOCC2)S(=O)(=O)c2ccc(F)cc2)cc1`, -0.168.
`CCCn1c(SCC(=O)Nc2cc(C)on2)nc2c1c(=O)n(C)c(=O)n2C`: the z-score was -0.515.
As to `COc1cccc(-c2csc(N3CCN(C(=O)NC45CC6CC(CC(C6)C4)C5)CC3)n2)c1`, the z-score came to 0.286.
The value for `O=C(c1cccs1)N1CCC(c2nc(-c3ccc(S(=O)(=O)N4CCOCC4)cc3)no2)CC1` was -0.344.
To `Cc1c(C(=O)OC(C)C(C)C[N+](C)(C)C)oc2ccccc12` (configuration not stated) belongs -0.419.
To `O=C(NCc1ccco1)c1ccccc1F` belongs 0.717; to `CCOC(=O)N1CCN(CC(O)COCC2=CCC3CC2C3(C)C)CC1` (configuration not stated), -0.486; to `Cc1ccccc1CN1CCN(CC(=O)NCc2ccccn2)C1=O`, 0.684.
In turn, `N#CCCN1CCN(S(=O)(=O)c2ccc(C#N)cc2)CC1` showed a z-score of -0.131.
To `Cc1csc(OCC(=O)Nc2ccc(C)c(C)c2)n1` belongs 0.461.
To `O=C(NCc1cccnc1)C1CC2c3ccccc3C1c1ccccc12` (configuration not stated) belongs -0.134; to `COc1ccc(OC)c(NC(=O)CCCN2C(=S)NC(C)(C)CC2C)c1` (configuration not stated), -0.309.
The molecule `CC(C)Sc1nc2ccccc2c(=O)[nH]1` yielded a z-score of -0.257.
The value for `CCc1ccc2ncc(S(=O)(=O)c3ccc(C)c(C)c3)c(N3CCCC3)c2c1` was -0.506; that for `Cc1ccc(C)c(N2CCN(C(=O)c3cn(C)c4ccc(S(=O)(=O)N(C)C)cc4c3=O)CC2)c1` was -0.414.
To `Cn1c(SCC(=O)c2ccc(F)cc2)nnc1-c1ccccc1N` belongs -0.0125; to `CC(=O)c1cc2c(cc1NC(=O)CCC1CCCC1)OCO2`, 0.181; to `O=C(Nc1ccccc1)C(=O)Nc1ccccn1`, -0.125.
The value for `C=CCOC(=O)C1=C(C)NC(SCC(=O)Nc2ccc(C)c(Cl)c2)=C(C#N)C1c1ccco1` (configuration not stated) was -0.468.
Take `Cc1ccccc1NCc1ccc(O)c2ncccc12`: the z-score turned out to be 0.65.
To `Clc1ccc(Sc2cc(N3CCOCC3)nc(-c3ccccc3)n2)cc1` belongs -0.294; to `CCNc1c2c(nc3ccccc13)CC(C)(C)CC2=O`, -0.0295; to `CCCCCc1ccc(-c2ccc(/C=C/C(=O)O)cc2)nc1`, 0.148.
To `O=C(c1cccc(Br)c1)N1CCN(C(=O)N2CCOCC2)CC1` belongs 0.0709; to `CCNC(=O)C1CCCN1S(=O)(=O)c1ccc(C)cc1` (configuration not stated), -0.513; to `O=C(/C=C/c1ccco1)N1CCN(c2ncccn2)CC1`, -0.252.
Turning to `CC(C)(C)C1=CC(=Nc2ccccc2N)C=C(C(C)(C)C)C1=O`, the z-score is 0.127.
To `Cc1ccc(C(=O)Nc2c(C)cc(-c3ccc(Cl)cc3)oc2=O)cc1` belongs 1.81; to `CC1CCCCC1NC(=O)/C(C#N)=C/c1ccc(OCC(N)=O)cc1` (configuration not stated), -0.0712; to `Cc1cccc(C(C)C)c1NC(=O)COC(=O)COc1ccc2c(C)cc(=O)oc2c1`, 0.217.
The value for `Cc1ccc(-c2nnn(CC(=O)O)n2)cc1` was 0.449.
The value for `CCN(CC)C(=O)CSc1nnc(SCc2ccc(Cl)cc2)s1` was 0.687; that for `CCN1C(=O)S/C(=C/c2cn(C)c3ccccc23)C1=O` was -0.127.
`Cc1ccc(C)c2c1[nH]c1ccccc12` registered a z-score of 0.153.
To `O=C(CCCSc1nnc(SCCCC(=O)c2ccc(F)cc2)s1)c1ccc(F)cc1` belongs -0.115; to `O/N=C/c1cn(-c2ccccc2)nc1-c1ccc2c(c1)OCCO2`, -0.458.
In the case of `Cc1ccc(NC(=O)CCCCCC2NC(=O)NC2C)cc1` (configuration not stated), the z-score is -0.0926.
The value for `COc1ccccc1-c1c(C(F)(F)F)oc2cc(OC(=O)c3ccc([N+](=O)[O-])cc3)ccc2c1=O` was -1.55; that for `Cc1ccc(S(=O)(=O)N(C(=O)c2ccncc2)c2ccc(OC(=O)c3ccncc3)c3ccccc23)cc1` was 0.393; that for `Cc1occc1-c1nnc(SCC(=O)N(C)CCC#N)n1N` was 0.286.
The value for `CC(=O)N1N=C(c2ccc(Cl)cc2)OC1(C)C` was 0.00963; that for `O=C(CNS(=O)(=O)c1ccc(F)cc1)Nc1ccc(C(F)(F)F)cc1` was 0.512; that for `NC(=O)C1(N2CCCCC2)CCN(CC(=O)Nc2ccccc2Sc2ccccc2)CC1` was -0.126.
To `O=C(CN1CCN(Cc2ccc3c(c2)OCO3)CC1)Nc1ccc(F)cc1` belongs -0.502; to `COc1ccc(C2=C(C=C(C#N)C#N)C(c3ccccc3C)c3ccccc3O2)cc1OC` (configuration not stated), -0.163; to `O=C(Cn1ncc2c(=O)oc3ccccc3c21)Nc1nc2ccccc2s1`, 0.213.
Turning to `COc1ccc2nc(NC(=O)/C=C/c3ccc4c(c3)OCO4)sc2c1`, the z-score is -0.015.
To `COCCNC(=O)C(c1ccc(C)cc1)N(C(=O)CCC(=O)Nc1ccccn1)C1CCCC1` (configuration not stated) belongs 0.0645; to `CCCc1ccc(-c2cc(N)n[nH]2)cc1`, 0.0748; to `COc1cccc(N=Cc2c(O)n(-c3cccc(C)n3)c(=O)c3ccccc23)c1`, -0.226.
The molecule `CCCCCCN1CC(O)=C(c2ccccc2)C1=N` had a z-score of -0.0279.
With `C=C(Cl)COc1ccc2c(CCC)cc(=O)oc2c1`, the z-score is -0.466.
To `CCOc1ccccc1OCC(=O)Nc1nnc(COC)s1` belongs 0.236; to `CC(NC(=O)c1noc2c1CCCCC2)c1ccccc1` (configuration not stated), 0.232.
The value for `O=C(COC(=O)c1ccccc1Nc1ccccc1)NCc1ccccc1Cl` was 0.185; that for `C=CCOn1c(C)c(C(C)=O)c2c3no[n+]([O-])c3ccc21` was -0.449.
To `O=C(c1cc2ccccc2oc1=O)N(Cc1ccccc1)CC1CCCO1` (configuration not stated) belongs -0.391; to `CC1CCN(C(NC(=O)c2ccco2)C(=O)c2ccccc2)CC1` (configuration not stated), -0.642.
In turn, `Cc1ccc(NC(=O)c2ccc(CSc3nnc(-c4ccncc4)n3C)cc2)c(C)c1` returned a z-score of -0.244.
To `CCOc1ccc(NC(=S)NCCCn2ccnc2)cc1` belongs -0.207.
To `Nc1nc(-c2cccnc2)nn1S(=O)(=O)c1ccccc1` belongs 0.928; to `COc1ccccc1NC(=O)CSc1nnc(-c2ccco2)o1`, -0.188; to `O=C(Nc1ccc(-c2nc3ncccc3o2)cc1)c1ccc(Br)o1`, -0.16.
`CC(C)(C)NC(=O)c1cccc(NC(=O)c2cccc(O)c2)c1` came in with a z-score of 0.00192.
Consider `O=C(Nc1nncs1)c1ccccc1NS(=O)(=O)c1cccs1`, for which the z-score was active: -3.16.
To `COc1ccc2nc(NC(=O)CN(C)S(=O)(=O)c3cccs3)sc2c1` belongs -0.0626; to `CC(C)CNC(=O)COC(=O)/C=C/c1ccco1`, -0.235.
To `COc1ccc(Nc2nc(C(=O)NCCCN3CCOCC3)cs2)cc1` belongs -0.491; to `CCOC(=O)/C(=C/C=C1\Sc2ccccc2N1CC)C(C)=O`, -2.28; to `c1ccc(Nc2cccc(Nc3ccccc3)c2)cc1`, -0.671.
Consider `CCn1c(N)c(C(=O)NCC2CCCO2)sc1=S` (configuration not stated), for which the z-score was -0.397.
The value for `COc1ccc(-c2nnn(CC(=O)N3CCOCC3)n2)cc1` was 0.18; that for `O=C(CCS(=O)(=O)c1ccc(Br)cc1)Nc1ccc(Cl)cc1F` was 0.262.
The value for `Cc1nc(SCc2ccccc2)c(C(F)(F)F)c(=O)[nH]1` was -0.0394; that for `CN1OC(COC(=O)c2ccc(Cl)cc2)CC1c1ccccc1` (configuration not stated) was 0.02.
